Measurements: article PMC4336329 (PLoS ONE, 2015)
Screen size: about 310,000 compounds; about 2,200 (0.71%) showed an effect of 50% or more. Effects have a minus sign here. The list shows a part of the results.

What follows are compounds tested against human ether-à-go-go-related gene (hERG) potassium channel (human, UniProt Q12809) (assay: primary screen, population patch clamp on CHO cells stably expressing hERG).
Sequence of human ether-à-go-go-related gene (hERG) potassium channel (Q12809 whole entry, looked up): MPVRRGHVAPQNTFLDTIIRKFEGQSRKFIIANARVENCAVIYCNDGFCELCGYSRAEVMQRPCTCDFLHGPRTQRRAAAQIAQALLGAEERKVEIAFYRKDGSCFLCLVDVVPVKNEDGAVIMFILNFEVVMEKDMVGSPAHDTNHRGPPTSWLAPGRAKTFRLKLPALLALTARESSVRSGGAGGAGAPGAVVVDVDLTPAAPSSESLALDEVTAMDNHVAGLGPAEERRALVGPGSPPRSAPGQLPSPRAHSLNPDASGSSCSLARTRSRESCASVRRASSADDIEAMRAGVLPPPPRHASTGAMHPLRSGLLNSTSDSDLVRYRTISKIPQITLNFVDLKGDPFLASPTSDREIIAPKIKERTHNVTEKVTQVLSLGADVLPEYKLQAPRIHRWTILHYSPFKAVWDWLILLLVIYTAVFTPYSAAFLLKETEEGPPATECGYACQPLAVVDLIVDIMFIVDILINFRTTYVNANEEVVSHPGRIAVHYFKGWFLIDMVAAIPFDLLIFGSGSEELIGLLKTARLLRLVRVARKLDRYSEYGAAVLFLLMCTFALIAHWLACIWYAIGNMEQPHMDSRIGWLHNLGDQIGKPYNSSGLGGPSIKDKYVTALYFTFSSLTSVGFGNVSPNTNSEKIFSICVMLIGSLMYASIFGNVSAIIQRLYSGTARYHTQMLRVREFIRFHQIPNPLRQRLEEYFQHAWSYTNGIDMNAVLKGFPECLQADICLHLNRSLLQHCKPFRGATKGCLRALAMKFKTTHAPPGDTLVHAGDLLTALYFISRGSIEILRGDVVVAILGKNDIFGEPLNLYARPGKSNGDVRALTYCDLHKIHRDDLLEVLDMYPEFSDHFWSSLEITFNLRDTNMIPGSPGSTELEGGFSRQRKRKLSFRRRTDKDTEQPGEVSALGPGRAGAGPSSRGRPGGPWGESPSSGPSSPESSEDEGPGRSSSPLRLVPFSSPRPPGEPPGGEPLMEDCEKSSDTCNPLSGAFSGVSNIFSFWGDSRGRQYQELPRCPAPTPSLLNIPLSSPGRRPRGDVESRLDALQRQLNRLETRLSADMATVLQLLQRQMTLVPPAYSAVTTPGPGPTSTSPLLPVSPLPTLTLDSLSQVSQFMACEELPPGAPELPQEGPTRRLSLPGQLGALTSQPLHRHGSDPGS
For `Cc1ccsc1C(=O)C1CCCN(Cc2c(C)nn(C(C)C)c2C)C1` (stereo not shown), the “hERG current change (%, negative = inhibition) at 1uM” value was 9.56%.
`COc1ccc(S(=O)(=O)N2CCCN(S(=O)(=O)c3ccc(OC)c(C)c3)CC2)cc1C` was tested, and the “hERG current change (%, negative = inhibition) at 1uM” value was 3.77%.
`CC(CO)(CO)NCc1ccc(-c2ccccc2)cc1.Cl` was tested, and the “hERG current change (%, negative = inhibition) at 1uM” value was 9.61%.
With `O=C(CN1CCCCC1)N1c2ccccc2CCc2ccccc21` the “hERG current change (%, negative = inhibition) at 1uM” value was 11.7%.
With `COc1ccc(C(=O)c2cn[nH]c2-c2cc(C)ccc2O)cc1` the “hERG current change (%, negative = inhibition) at 1uM” value was 12.4%.
For `O=C(Cn1cnc2ccccc2c1=O)Nc1cccc(S(=O)(=O)N2CCCCC2)c1`, the “hERG current change (%, negative = inhibition) at 1uM” value was 8.05%.
With `CCCn1c(N)c(N2CCCCC2)c(=O)n(CC(=O)Nc2ccc(OC(F)(F)F)cc2)c1=O` the “hERG current change (%, negative = inhibition) at 1uM” value was 6.04%.
With `OC(CN1CCCCC1)Cn1c2ccccc2c2cc(Br)ccc21` (stereo not shown) the “hERG current change (%, negative = inhibition) at 1uM” value was 5.76%.
In the case of `CCOc1ccc(C2NC(=O)Cc3cc(OC)c(OC)cc32)cc1` (stereo not shown), the “hERG current change (%, negative = inhibition) at 1uM” value is reported as 13.3%.
With `COc1ccc2c(c1)c(C(=O)O)c(C)n2C(C)C` the “hERG current change (%, negative = inhibition) at 1uM” value was 11.4%.
With `CCCCNC(=O)CN1C(=O)NC2NC(=O)NC21` (stereo not shown) the “hERG current change (%, negative = inhibition) at 1uM” value was 5.31%.
`Cc1ccc(C)c(CSc2ncccc2C(=O)O)c1` was tested, and the “hERG current change (%, negative = inhibition) at 1uM” value was 19.3%.
With `Cc1nn(C(=O)c2ccco2)c(C)c1Sc1ccc([N+](=O)[O-])cc1` the “hERG current change (%, negative = inhibition) at 1uM” value was 16.2%.
`O=C(c1ccc(C(F)(F)F)cc1)c1c[nH]c(C(=O)NCCCn2ccnc2)c1` was tested, and the “hERG current change (%, negative = inhibition) at 1uM” value was -7.62%.
In the case of `COCCNC(=O)c1ccc(Cl)c(Cl)c1`, the “hERG current change (%, negative = inhibition) at 1uM” value is reported as 2.31%.
In the case of `Cc1ccccc1S(=O)(=O)NC1OC(=O)C(Cl)=C1Cl` (stereo not shown), the “hERG current change (%, negative = inhibition) at 1uM” value is reported as 13%.
`CC(=O)Nc1ccc(S(=O)(=O)N2CCC(N3CCCC3)CC2)cc1` was tested, and the “hERG current change (%, negative = inhibition) at 1uM” value was 17%.
With `CCN1CCN(C(=O)C(=O)c2cn(CC(=O)N3CCCCCC3)c3ccccc23)CC1` the “hERG current change (%, negative = inhibition) at 1uM” value was 8.76%.
For `CC1CN(c2nc(-c3ccccc3)nc3ccccc23)CC(C)O1` (stereo not shown), the “hERG current change (%, negative = inhibition) at 1uM” value was 7.37%.
With `CCOC(=O)c1sc(NS(=O)(=O)c2ccc(NC(C)=O)cc2)nc1C` the “hERG current change (%, negative = inhibition) at 1uM” value was -1.94%.
For `CCOc1cc(/C=N/N=C(N)N)ccc1OCc1ccc(Cl)cc1`, the “hERG current change (%, negative = inhibition) at 1uM” value was 6.86%.
In the case of `Cc1cccc(C(=O)NCC(=O)OCC(=O)N2CCCCC2)c1`, the “hERG current change (%, negative = inhibition) at 1uM” value is reported as 13%.
`NC(=O)CC(NC(=O)Cc1ccc(Br)cc1)c1ccc(NCCc2cccc(F)c2)c([N+](=O)[O-])c1` (stereo not shown) was tested, and the “hERG current change (%, negative = inhibition) at 1uM” value was 2.31%.
In the case of `O=C(OC1CCOC1=O)c1cc(Cl)ccc1[N+](=O)[O-]` (stereo not shown), the “hERG current change (%, negative = inhibition) at 1uM” value is reported as 16.5%.
With `Cc1cc(Cl)ccc1NC(=S)NC(C)(C)C` the “hERG current change (%, negative = inhibition) at 1uM” value was 18.5%.
In the case of `CCn1c(SCC(=O)NCc2ccco2)nnc1C(C)C`, the “hERG current change (%, negative = inhibition) at 1uM” value is reported as 2.73%.
For `Nc1c(C(=O)c2ccc(Br)cc2)oc2ccccc12`, the “hERG current change (%, negative = inhibition) at 1uM” value was 15.8%.
With `CCc1noc(C)c1C(=O)N(CC)CC(=O)Nc1ccccc1C(F)(F)F` the “hERG current change (%, negative = inhibition) at 1uM” value was 3.86%.
`CNc1ccccc1C(C)(C)c1cc(-c2ccc(F)cc2)no1` was tested, and the “hERG current change (%, negative = inhibition) at 1uM” value was 19.1%.
For `O=C(Nc1ccc2oc(=O)ccc2c1)c1ccc(-c2cccc([N+](=O)[O-])c2)o1`, the “hERG current change (%, negative = inhibition) at 1uM” value was 13.9%.
`Nc1nc(CN2CCN(c3ccccc3)CC2)nc(N2CCCc3ccccc32)n1` was tested, and the “hERG current change (%, negative = inhibition) at 1uM” value was 2.47%.
With `C=CCN(Cc1cc(OC)ccc1OC)C(=O)c1cc2ccc(OC)cc2[nH]1` the “hERG current change (%, negative = inhibition) at 1uM” value was 5.18%.
For `O=C(O)c1ccc(NC(CSCc2ccc(F)cc2)C(=O)O)c([N+](=O)[O-])c1` (stereo not shown), the “hERG current change (%, negative = inhibition) at 1uM” value was 2.24%.
In the case of `O=C(CN1CCN(Cc2ccccc2Cl)C1=O)N1CCCCCC1`, the “hERG current change (%, negative = inhibition) at 1uM” value is reported as 5.43%.
In the case of `Cc1cccc(NC(=O)/C=C/c2ccc3c(c2)OCO3)n1`, the “hERG current change (%, negative = inhibition) at 1uM” value is reported as 16.8%.
`COc1ccc(CCNC(=O)CSc2nnc3ccccn23)cc1` was tested, and the “hERG current change (%, negative = inhibition) at 1uM” value was 16.1%.
`CCCC(=O)N1CCN(c2ccc(NC(=O)C(C)(C)C)cc2)CC1` was tested, and the “hERG current change (%, negative = inhibition) at 1uM” value was 14.3%.
In the case of `O=C(CSc1n[nH]c(-c2ccccc2)n1)NCc1cccc(C(=O)O)c1`, the “hERG current change (%, negative = inhibition) at 1uM” value is reported as 14.2%.
`O=c1c2c3c(sc2nc2n1CCC2)CCCC3` was tested, and the “hERG current change (%, negative = inhibition) at 1uM” value was 10.9%.
`CCOC(=O)c1c(N2C(=O)CC(Sc3ccccc3C(=O)O)C2=O)sc(C)c1C` (stereo not shown) was tested, and the “hERG current change (%, negative = inhibition) at 1uM” value was 13.6%.
`Cc1ccc(-c2cn3cccnc3n2)cc1` was tested, and the “hERG current change (%, negative = inhibition) at 1uM” value was 13.4%.
With `NCCCCCc1cn([C@@H](CCC(=O)O)C(=O)NCCCCCCCCCCC(=O)N2CCNCC2)nn1` the “hERG current change (%, negative = inhibition) at 1uM” value was 15%.
`CCOC(=O)N1CCN(C(=O)c2cnn3c(C(F)F)cc(-c4ccc(C)cc4)nc23)CC1` was tested, and the “hERG current change (%, negative = inhibition) at 1uM” value was 5.77%.
With `O=C(CSc1cn(CCNC(=O)c2cccs2)c2ccccc12)NCc1ccccc1` the “hERG current change (%, negative = inhibition) at 1uM” value was 6.95%.
For `COc1cccc2cc(C(=O)N3CCC(C)CC3)c(=O)oc12`, the “hERG current change (%, negative = inhibition) at 1uM” value was 4.67%.
In the case of `CN(CC(=O)Nc1ccccc1Sc1ccccc1)Cc1nc2ccccc2c(=O)[nH]1`, the “hERG current change (%, negative = inhibition) at 1uM” value is reported as 2.6%.
`O=c1cc(N2CCOCC2)cnn1-c1ccccc1` was tested, and the “hERG current change (%, negative = inhibition) at 1uM” value was 2.76%.
In the case of `NS(=O)(=O)c1cnccc1Nc1cccc(Br)c1`, the “hERG current change (%, negative = inhibition) at 1uM” value is reported as 10.6%.
`COC(=O)c1cnn(-c2nc(OC)cc(OC)n2)c1C` was tested, and the “hERG current change (%, negative = inhibition) at 1uM” value was 5.94%.
`O=C(c1ccc(OC2CCN(Cc3ccccc3OC(F)F)CC2)cc1)N1CCCC1` was tested, and the “hERG current change (%, negative = inhibition) at 1uM” value was 12.4%.
For `COc1cc(SC)ccc1C(=O)NCCc1ccccc1`, the “hERG current change (%, negative = inhibition) at 1uM” value was 10.2%.
In the case of `O=C(CN(Cc1ccc(F)cc1)C(=O)c1csnn1)NCc1ccccc1`, the “hERG current change (%, negative = inhibition) at 1uM” value is reported as -3.73%.
With `CC1(C(=O)OCC(=O)Nc2nnc(-c3ccccc3)o2)CC1(Cl)Cl` (stereo not shown) the “hERG current change (%, negative = inhibition) at 1uM” value was 11.8%.
With `CC1CCc2c(sc(/N=C/c3ccco3)c2C(N)=O)C1` (stereo not shown) the “hERG current change (%, negative = inhibition) at 1uM” value was 10.5%.
With `COc1ccc(Oc2ccc(/C=C/C(=O)c3ccc(O)cc3)cc2[N+](=O)[O-])cc1` the “hERG current change (%, negative = inhibition) at 1uM” value was 9.3%.
`CC(=O)CCc1c(C)nc2ccc(C)cc2c1Cl` was tested, and the “hERG current change (%, negative = inhibition) at 1uM” value was 4.06%.
For `CCCOc1cccc(C(=O)NCCNC(=O)c2ccc(C)nc2)c1`, the “hERG current change (%, negative = inhibition) at 1uM” value was 7.83%.
`CCCCN1C(=O)C(=O)N(CC(=O)Nc2cc(Cl)ccc2OC)C1=O` was tested, and the “hERG current change (%, negative = inhibition) at 1uM” value was 2.33%.
